Out of some 350,000 compounds screened, about 31,000 (8.9%) were called active. The inconclusive results got no clear call from the source; some entries with a clear call stand among them for comparison. Calls come from the whole dose curve; as a rule, active = well fitted inhibition curve with a large enough effect; inconclusive = small, poorly fitted or top-dose-only effect; inactive = no such curve, though single readings can be large or run the other way. Where the call is inconclusive, the potency comes from a doubtful curve fit.
These compounds were tested against Histone-lysine N-methyltransferase EHMT2 (Homo sapiens) (UniProt Q96KQ7) (assay: qHTS Assay for Inhibitors of Histone Lysine Methyltransferase G9a). Conditions: G9a H3K9 monomethylation, AlphaScreen, 2 h; activity, negative = inhibition: at 59 µM (top of the series) unless noted.
Chain of UniProt Q96KQ7 (Q96KQ7 whole entry, looked up): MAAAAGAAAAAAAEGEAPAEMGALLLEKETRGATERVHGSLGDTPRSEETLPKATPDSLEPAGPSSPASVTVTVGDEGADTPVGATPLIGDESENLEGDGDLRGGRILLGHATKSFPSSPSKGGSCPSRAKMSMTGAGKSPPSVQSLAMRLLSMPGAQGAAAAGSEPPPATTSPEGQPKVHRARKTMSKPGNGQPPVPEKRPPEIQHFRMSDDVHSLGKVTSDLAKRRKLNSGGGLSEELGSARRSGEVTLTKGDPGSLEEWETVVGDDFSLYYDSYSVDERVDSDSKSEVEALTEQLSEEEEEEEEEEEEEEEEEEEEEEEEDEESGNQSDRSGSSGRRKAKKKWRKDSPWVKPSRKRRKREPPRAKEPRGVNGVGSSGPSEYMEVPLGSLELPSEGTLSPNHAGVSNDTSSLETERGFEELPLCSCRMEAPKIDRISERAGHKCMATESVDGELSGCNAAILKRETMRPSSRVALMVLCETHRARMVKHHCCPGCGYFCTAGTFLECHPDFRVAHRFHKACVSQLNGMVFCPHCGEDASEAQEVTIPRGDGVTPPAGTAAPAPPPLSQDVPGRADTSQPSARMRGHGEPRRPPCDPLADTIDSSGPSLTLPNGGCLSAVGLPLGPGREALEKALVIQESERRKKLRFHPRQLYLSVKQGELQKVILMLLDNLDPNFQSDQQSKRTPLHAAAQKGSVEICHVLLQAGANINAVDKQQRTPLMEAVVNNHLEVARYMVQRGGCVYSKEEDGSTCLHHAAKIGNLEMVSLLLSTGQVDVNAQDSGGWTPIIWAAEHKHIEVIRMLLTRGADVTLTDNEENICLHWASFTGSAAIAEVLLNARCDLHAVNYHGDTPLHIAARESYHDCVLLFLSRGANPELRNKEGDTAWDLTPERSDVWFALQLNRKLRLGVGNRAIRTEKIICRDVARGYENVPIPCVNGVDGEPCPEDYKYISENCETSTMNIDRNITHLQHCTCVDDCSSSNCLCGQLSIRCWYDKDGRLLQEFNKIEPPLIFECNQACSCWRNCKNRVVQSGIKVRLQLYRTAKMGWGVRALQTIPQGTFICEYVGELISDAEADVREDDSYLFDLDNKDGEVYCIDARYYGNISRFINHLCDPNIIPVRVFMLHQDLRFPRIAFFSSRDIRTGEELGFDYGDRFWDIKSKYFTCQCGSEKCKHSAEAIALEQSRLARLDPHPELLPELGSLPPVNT
Method in brief: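 AlphaScreen detection with an anti-monomethyl H3K9 antibody quantified product after a 2 h room-temperature reaction containing 500 nM biotinylated H3K9 peptide, 20 µM SAM and 20 nM enzyme, which had been preincubated 15 min with compound.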
In the case of `CCOC(=O)N1CCN(S(=O)(=O)c2cc([N+](=O)[O-])ccc2C)CC1`, the Potency is reported as inconclusive: 56.2 µM [inhibitor, partial curve].
For `Cc1ccc(C(=O)NCC(=O)OCC(=O)N(CC(C)C)c2c(N)n(Cc3ccccc3)c(=O)[nH]c2=O)cc1`, the Potency was inconclusive: 50.1 µM [inhibitor, partial curve, poor fit].
`CCOc1ccc2nc(NC(=O)Cc3cccs3)sc2c1` was tested, and the Potency was inconclusive: 5.62 µM [inhibitor, single point].
With `OC(CN1CCOCC1)CN1CCOCC1` the Potency was inconclusive: 22.4 µM [inhibitor, full curve, poor fit].
`COc1cc(OC)cc(C(=O)NCC(=O)N2CC=C(c3ccccc3)CC2)c1` was tested, and the Potency was active: 50.1 µM.
`CCOc1ccccc1C(=O)Oc1c(S(=O)(=O)c2ccc(C)cc2)c(C)nn1-c1ccccc1` was tested, and the Potency was inconclusive: 35.5 µM [inhibitor, partial curve, poor fit].
In the case of `CC(=O)N1CCC[C@@]2(CCN(c3ccncc3)C2)C1`, the activity, negative = inhibition is reported as inactive: 5.84% [at 12.7 µM].
For `Cc1ccc(CNC(=O)c2ccc(CS(=O)(=O)Cc3ccc(F)cc3)o2)cc1`, the “activity, negative = inhibition” value was inactive: -10.3%.
In the case of `Cc1ccccc1CN1CCc2nc(N3CCN(c4ncccn4)CC3)ncc2C1`, the Potency is reported as inconclusive: 31.6 µM [inhibitor, single point].
In the case of `CCc1c(C)sc(NC(=O)c2cc(C(C)C)on2)c1C#N`, the Potency is reported as inconclusive: 4.47 µM [inhibitor, partial curve, poor fit].
With `CC(O/N=C\c1ccccc1O)C(=O)Nc1ccccc1C(=O)N1CCOCC1` (stereo not drawn) the Potency was inconclusive: 22.4 µM [inhibitor, partial curve, poor fit].
For `O=C(Nc1ccc(S(=O)(=O)Nc2nccs2)cc1)c1ccc(N2C(=O)c3ccccc3C2=O)cc1`, the Potency was inconclusive: 44.7 µM [inhibitor, partial curve].
With `Cn1cnnc1SCC(=O)c1cc2ccccc2o1` the Potency was inconclusive: 89.1 µM [inhibitor, partial curve, poor fit].
In the case of `CC(=O)N1[C@@H]2CC3C4CC=C5C[C@@H](O)CC[C@]5(C)C4CC[C@]3(C)[C@@]21C(C)=O` (stereo partly drawn), the Potency is reported as inconclusive: 70.8 µM [inhibitor, partial curve, poor fit].
In the case of `CN(C)c1ccc(NC(=O)Nc2cccc(Cl)c2)cc1`, the Potency is reported as active: 1.12 µM.
In the case of `CCC(CC)NC(=O)COn1nnc2ccc(S(=O)(=O)N3CCOCC3)cc21`, the activity, negative = inhibition is reported as inconclusive: -64.5% [inhibitor] [at 2.33 µM].
With `COc1ccc(-c2nc(SCC(=O)Nc3ccccc3)c(-c3ccc(F)cc3)[nH]2)cc1OC` the “activity, negative = inhibition” value was inactive: 7.45%.
With `CCS(=O)(=O)N1CCc2cc(C(=O)N3CCN(c4ccc(OC)cc4)CC3)ccc21` the Potency was inconclusive: 39.8 µM [inhibitor, partial curve, poor fit].
`CC1Cc2ccccc2N1C(=O)C1CCCN1S(=O)(=O)c1ccc(Cl)cc1` (stereo not drawn) was tested, and the Potency was inconclusive: 6.31 µM [inhibitor, single point].
In the case of `CC1CCc2c(C(=O)Nc3ccc(N4CCOCC4)cc3)csc2C1` (stereo not drawn), the Potency is reported as inconclusive: 25.1 µM [inhibitor, partial curve, poor fit].
In the case of `CCN(C(=O)CSc1nnc(C)n1Cc1ccccc1)C1CCS(=O)(=O)C1` (stereo not drawn), the Potency is reported as active: 25.1 µM.
In the case of `COc1ccc(S(=O)(=O)NCc2cccn2Cc2cccc(C)c2)cc1Cl`, the “activity, negative = inhibition” value is reported as inactive: -4.35%.
`Cc1ccc(S(=O)(=O)N2CCOCC2)cc1NC(=O)CSc1nc(N)cc(N)n1` was tested, and the “activity, negative = inhibition” value was inactive: -23.7% [at 102 µM].
For `COc1ccc(C2=NNC(=O)CC2)cc1`, the Potency was inconclusive: 89.1 µM [inhibitor, single point].
`Cc1ccc(CC(=O)Nc2ccncc2)cc1` was tested, and the Potency was active: 50.1 µM.
For `O=C(Nc1ccc(O)c2c(=O)cc(-c3ccccc3Cl)oc12)c1ccc(F)cc1`, the Potency was inconclusive: 1.41 µM [inhibitor, single point].
With `CCOC(=O)c1c(NC(C)=O)sc2c(O)c(Br)ccc12` the Potency was active: 1.58 µM.
`COc1ccc(Nc2nc3c([nH]2)c(=O)[nH]c(=O)n3C)cc1` was tested, and the Potency was active: 50.1 µM.
For `CCC1CCc2c(c3ccccc3[nH]c2=O)O1` (stereo not drawn), the “activity, negative = inhibition” value was inactive: 17.8% [at 102 µM].
`CCn1cc(C(=O)O)c(=O)c2cc(S(=O)(=O)N(C)C)ccc21` was tested, and the Potency was inconclusive: 31.6 µM [inhibitor, single point].
`COCCOc1ccc(C(F)(F)F)cc1Nc1nc2ccccc2o1` was tested, and the Potency was inconclusive: 7.08 µM [inhibitor, single point].
For `Cc1nc([N+](=O)[O-])c(Br)n1CC(=O)c1cccc([N+](=O)[O-])c1`, the Potency was inconclusive: 3.55 µM [inhibitor, full curve].
With `COc1ccc(C(=O)N2CCCC(C(=O)O)C2)c2ccccc12` (stereo not drawn) the Potency was active: 44.7 µM.
In the case of `OC(c1ccccc1)(c1ccccc1)C1CCN(C(=S)NC2CCCC2)CC1`, the Potency is reported as active: 39.8 µM.
In the case of `CCOc1ccc(NC(=O)CCS(=O)(=O)c2ccc(Br)s2)cc1`, the Potency is reported as inconclusive: 35.5 µM [inhibitor, single point].
For `O=C1CCN(CCc2ccccc2)CCN1[C@H](COc1ccccc1)c1ccccc1`, the Potency was inconclusive: 79.4 µM [inhibitor, single point].
In the case of `COc1ccc(N2CCN(CC(=O)Nc3ccc(SC(F)F)cc3)CC2)cc1`, the Potency is reported as inconclusive: 22.4 µM [inhibitor, single point].
In the case of `CC(C)Oc1ccc(/C(O)=C2/C(=O)C(=O)N(CCN3CCOCC3)C2c2ccccc2)cc1` (stereo not drawn), the Potency is reported as inconclusive: 3.16 µM [inhibitor, partial curve, poor fit].
In the case of `Nn1cnnc1N/N=C/c1cccc(Cl)c1Cl`, the Potency is reported as inconclusive: 89.1 µM [inhibitor, single point].
`O=C(OC(c1ccccc1)c1nccc2ccccc12)c1cc([N+](=O)[O-])cc([N+](=O)[O-])c1` (stereo not drawn) was tested, and the Potency was active: 10 µM.
`CCOC(=O)c1sc2nc(C)nc(NC3CCC(O)CC3)c2c1C` (stereo not drawn) was tested, and the “activity, negative = inhibition” value was inactive: 12% [at 102 µM].
`Cc1ccc(C)c(N2CCN(CCCNC(=O)CCC(=O)N3CCOc4ccc(Cl)cc43)CC2)c1` was tested, and the “activity, negative = inhibition” value was inactive: -6.94% [at 102 µM].
For `Cc1cccc(NS(=O)(=O)c2nnc(NC(=O)c3ccc(C)c(C)c3)s2)c1`, the Potency was inconclusive: 89.1 µM [inhibitor, single point].

From PubChem BioAssay AID504332 (National Center for Advancing Translational Sciences (NCATS), 2011)
% is set by controls: 0 for no effect and ±100 for the full control effect; potency is the fitted concentration of half-maximal effect; tags give direction and shape of the fitted curve.
Note: nearly all actives have a fitted effect of over 75% in size.
